{"source": "the supplement of paper PMC8728848", "binders": {"B1": {"name": "AT1G73650(15) (Arabidopsis thaliana), F4HRY1 (protein)", "chain": "MGTVLDSHFLALTAIVTVIYQFIFFVITALFKFDQVTDFAGSTNFVILAVLTLVLKASWHFRQIVLTLLVVVWGLRLGIFLLMETRILQWGEDRRFDEQRGNIVRLIIFWTLQAVWVWTVSLPLTLVNASDGGGSLKPADVIGWTMETWVFGFLIEAAADQQKLSFKNSPENRGKWCDVGVWKYSRHPNYFGEMETLLWWGIFVAASPVLEGAEYLVIFGPLFLTLLLLFVSGIPLLEASADKKHGNSGAYRSYKKTTSPLILFPRGVYGNLPGWFKTVFLFEFPFYSRNLPQEGRLQNSKEKEVKDD"}}, "experiment_in_all_cases": "glycan array binding signal (z-score within array); higher = stronger binding", "details_in_all_cases": "glycan notation: IUPAC condensed, linker removed", "key": {"[1]": {"target": "Neu5Ac(a2-8)Neu5Ac", "outline": "(§1)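 The Consortium for Functional Glycomics database supplied 3228 glycan arrays, of which those lacking an available protein sequence were dropped. The binding signal, a within-array Z-score, was averaged across arrays of the same protein sequence and across linkers. Negative scores can be read as non-binding.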"}, "[2]": {"target": "Neu5Ac(a2-8)Neu5Ac(a2-3)Gal(b1-3)GalNAc(b1-4)[Neu5Ac(a2-3)]Gal(b1-4)Glc", "outline": "as §1"}, "[3]": {"target": "Neu5Ac(a2-8)Neu5Ac(a2-3)Gal(b1-3)GalNAc(b1-4)[Neu5Ac(a2-8)Neu5Ac(a2-3)]Gal(b1-4)Glc", "outline": "as §1"}, "[4]": {"target": "Neu5Ac(a2-8)Neu5Ac(a2-3)Gal(b1-4)Glc", "outline": "as §1"}, "[5]": {"target": "Neu5Ac(a2-8)Neu5Ac(a2-3)Gal(b1-4)GlcNAc", "outline": "as §1"}, "[6]": {"target": "Neu5Ac(a2-8)Neu5Ac(a2-3)[Gal(b1-3)GalNAc(b1-4)]Gal(b1-4)Glc", "outline": "as §1"}, "[7]": {"target": "Neu5Ac(a2-8)Neu5Ac(a2-3)[GalNAc(b1-4)]Gal(b1-4)Glc", "outline": "as §1"}, "[8]": {"target": "Neu5Ac(a2-8)Neu5Ac(a2-8)Neu5Ac", "outline": "as §1"}, "[9]": {"target": "Neu5Ac(a2-8)Neu5Ac(a2-8)Neu5Ac(a2-3)Gal(b1-4)Glc", "outline": "as §1"}, "[10]": {"target": "Neu5Ac(a2-8)Neu5Ac(a2-8)Neu5Ac(a2-3)[Gal(b1-3)GalNAc(b1-4)]Gal(b1-4)Glc", "outline": "as §1"}, "[11]": {"target": "Neu5Ac(a2-8)Neu5Ac(a2-8)Neu5Ac(a2-3)[GalNAc(b1-4)]Gal(b1-4)Glc", "outline": "as §1"}, "[12]": {"target": "Neu5Ac(a2-8)Neu5Ac(a2-8)Neu5Ac(a2-8)Neu5Ac(a2-3)[GalNAc(b1-4)]Gal(b1-4)Glc", "outline": "as §1"}, "[13]": {"target": "Neu5Ac(a2-8)Neu5Gc(a2-3)Gal(b1-4)GlcNAc", "outline": "as §1"}, "[14]": {"target": "Neu5Ac(b2-6)Gal(b1-4)GlcNAc", "outline": "as §1"}, "[15]": {"target": "Neu5Ac(b2-6)GalNAc", "outline": "as §1"}, "[16]": {"target": "Neu5Ac9Ac(a2-3)Gal(b1-3)GlcNAc", "outline": "as §1"}, "[17]": {"target": "Neu5Ac9Ac(a2-3)Gal(b1-4)GlcNAc", "outline": "as §1"}, "[18]": {"target": "Neu5Ac9Ac(a2-6)Gal(b1-4)GlcNAc", "outline": "as §1"}, "[19]": {"target": "Neu5Gc(a2-3)Gal(b1-3)GlcNAc", "outline": "as §1"}, "[20]": {"target": "Neu5Gc(a2-3)Gal(b1-3)[Fuc(a1-4)]GlcNAc", "outline": "as §1"}, "[21]": {"target": "Neu5Gc(a2-3)Gal(b1-4)Glc", "outline": "as §1"}, "[22]": {"target": "Neu5Gc(a2-3)Gal(b1-4)GlcNAc", "outline": "as §1"}, "[23]": {"target": "Neu5Gc(a2-3)Gal(b1-4)GlcNAc(b1-3)Gal(b1-4)GlcNAc(b1-2)Man(a1-3)[Neu5Gc(a2-3)Gal(b1-4)GlcNAc(b1-3)Gal(b1-4)GlcNAc(b1-2)Man(a1-6)]Man(b1-4)GlcNAc(b1-4)GlcNAc", "outline": "as §1"}, "[24]": {"target": "Neu5Gc(a2-3)Gal(b1-4)[Fuc(a1-3)]GlcNAc", "outline": "as §1"}, "[25]": {"target": "Neu5Gc(a2-6)Gal(b1-4)GlcNAc", "outline": "as §1"}, "[26]": {"target": "Neu5Gc(a2-6)GalNAc", "outline": "as §1"}, "[27]": {"target": "Neu5Gc(a2-8)Neu5Ac(a2-3)Gal(b1-4)GlcNAc", "outline": "as §1"}, "[28]": {"target": "Neu5Gc(a2-8)Neu5Gc(a2-3)Gal(b1-4)GlcNAc", "outline": "as §1"}, "[29]": {"target": "Neu5Gc(a2-8)Neu5Gc(a2-3)Gal(b1-4)GlcNAc(b1-3)Gal(b1-4)GlcNAc", "outline": "as §1"}, "[30]": {"target": "Neu5Gc(a2-8)Neu5Gc(a2-6)Gal(b1-4)GlcNAc", "outline": "as §1"}, "[31]": {"target": "Neu5Gc(b2-6)Gal(b1-4)GlcNAc", "outline": "as §1"}}, "note": "The list shows a part of the results."}
{"binder": "B1", "values": [{"measurement": "glycan array binding signal (z-score)", "setting": "[1]", "result": 0.266}, {"measurement": "glycan array binding signal (z-score)", "setting": "[2]", "result": 0.136}, {"measurement": "glycan array binding signal (z-score)", "setting": "[3]", "result": -0.484}, {"measurement": "glycan array binding signal (z-score)", "setting": "[4]", "result": -0.556}, {"measurement": "glycan array binding signal (z-score)", "setting": "[5]", "result": -0.414}, {"measurement": "glycan array binding signal (z-score)", "setting": "[6]", "result": 0.034}, {"measurement": "glycan array binding signal (z-score)", "setting": "[7]", "result": -0.359}, {"measurement": "glycan array binding signal (z-score)", "setting": "[8]", "result": 2.92}, {"measurement": "glycan array binding signal (z-score)", "setting": "[9]", "result": 0.091}, {"measurement": "glycan array binding signal (z-score)", "setting": "[10]", "result": -0.348}, {"measurement": "glycan array binding signal (z-score)", "setting": "[11]", "result": 0.181}, {"measurement": "glycan array binding signal (z-score)", "setting": "[12]", "result": -0.213}, {"measurement": "glycan array binding signal (z-score)", "setting": "[13]", "result": -0.532}, {"measurement": "glycan array binding signal (z-score)", "setting": "[14]", "result": -0.517}, {"measurement": "glycan array binding signal (z-score)", "setting": "[15]", "result": -0.519}, {"measurement": "glycan array binding signal (z-score)", "setting": "[16]", "result": -0.22}, {"measurement": "glycan array binding signal (z-score)", "setting": "[17]", "result": -0.644}, {"measurement": "glycan array binding signal (z-score)", "setting": "[18]", "result": -0.483}, {"measurement": "glycan array binding signal (z-score)", "setting": "[19]", "result": -0.436}, {"measurement": "glycan array binding signal (z-score)", "setting": "[20]", "result": -0.428}, {"measurement": "glycan array binding signal (z-score)", "setting": "[21]", "result": -0.213}, {"measurement": "glycan array binding signal (z-score)", "setting": "[22]", "result": 2.26}, {"measurement": "glycan array binding signal (z-score)", "setting": "[23]", "result": -0.412}, {"measurement": "glycan array binding signal (z-score)", "setting": "[24]", "result": 0.085}, {"measurement": "glycan array binding signal (z-score)", "setting": "[25]", "result": -0.302}, {"measurement": "glycan array binding signal (z-score)", "setting": "[26]", "result": 3.69}, {"measurement": "glycan array binding signal (z-score)", "setting": "[27]", "result": -0.694}, {"measurement": "glycan array binding signal (z-score)", "setting": "[28]", "result": -0.527}, {"measurement": "glycan array binding signal (z-score)", "setting": "[29]", "result": -0.394}, {"measurement": "glycan array binding signal (z-score)", "setting": "[30]", "result": -0.375}, {"measurement": "glycan array binding signal (z-score)", "setting": "[31]", "result": 0.171}]}
